Reference: PubChem BioAssay AID504333 (National Center for Advancing Translational Sciences (NCATS), 2011)
Several values for one entry are separate records, joined by “and”; a condition that tells them apart may be missing. Equal values may be shown once. Out of some 360,000 compounds screened, about 16,000 (4.4%) were called active. Inconclusive results, whose numbers are uncertain, are shown with a selection of clear calls. Calls come from the whole dose curve; as a rule, active = well fitted inhibition curve with a large enough effect; inconclusive = small, poorly fitted or top-dose-only effect; inactive = no such curve, though single readings can be large or run the other way. A potency beside an inconclusive call is a rough fit, not a confirmed value.

Biological target: Bromodomain adjacent to zinc finger domain protein 2B (Homo sapiens) (UniProt Q9UIF8)
Assay: qHTS Assay for Inhibitors of BAZ2B; note: nearly all actives have a fitted effect of over 60% in size
Details: AlphaScreen BAZ2B-H3K14Ac peptide displacement; series mostly up to 114 µM
Procedure, shortened: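 Compounds, titrated to a top concentration of 110 uM, were incubated 30 min at room temperature with preformed BAZ2B/acetyl-K14 H3 peptide complex (50 nM each). Proximity signal was measured by AlphaScreen after 20 min with beads.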
Potency is the fitted concentration of half-maximal effect; tags give direction and shape of the fitted curve.

UniProt Q9UIF8, sequence (Q9UIF8 whole entry, looked up, the tested form may be a part): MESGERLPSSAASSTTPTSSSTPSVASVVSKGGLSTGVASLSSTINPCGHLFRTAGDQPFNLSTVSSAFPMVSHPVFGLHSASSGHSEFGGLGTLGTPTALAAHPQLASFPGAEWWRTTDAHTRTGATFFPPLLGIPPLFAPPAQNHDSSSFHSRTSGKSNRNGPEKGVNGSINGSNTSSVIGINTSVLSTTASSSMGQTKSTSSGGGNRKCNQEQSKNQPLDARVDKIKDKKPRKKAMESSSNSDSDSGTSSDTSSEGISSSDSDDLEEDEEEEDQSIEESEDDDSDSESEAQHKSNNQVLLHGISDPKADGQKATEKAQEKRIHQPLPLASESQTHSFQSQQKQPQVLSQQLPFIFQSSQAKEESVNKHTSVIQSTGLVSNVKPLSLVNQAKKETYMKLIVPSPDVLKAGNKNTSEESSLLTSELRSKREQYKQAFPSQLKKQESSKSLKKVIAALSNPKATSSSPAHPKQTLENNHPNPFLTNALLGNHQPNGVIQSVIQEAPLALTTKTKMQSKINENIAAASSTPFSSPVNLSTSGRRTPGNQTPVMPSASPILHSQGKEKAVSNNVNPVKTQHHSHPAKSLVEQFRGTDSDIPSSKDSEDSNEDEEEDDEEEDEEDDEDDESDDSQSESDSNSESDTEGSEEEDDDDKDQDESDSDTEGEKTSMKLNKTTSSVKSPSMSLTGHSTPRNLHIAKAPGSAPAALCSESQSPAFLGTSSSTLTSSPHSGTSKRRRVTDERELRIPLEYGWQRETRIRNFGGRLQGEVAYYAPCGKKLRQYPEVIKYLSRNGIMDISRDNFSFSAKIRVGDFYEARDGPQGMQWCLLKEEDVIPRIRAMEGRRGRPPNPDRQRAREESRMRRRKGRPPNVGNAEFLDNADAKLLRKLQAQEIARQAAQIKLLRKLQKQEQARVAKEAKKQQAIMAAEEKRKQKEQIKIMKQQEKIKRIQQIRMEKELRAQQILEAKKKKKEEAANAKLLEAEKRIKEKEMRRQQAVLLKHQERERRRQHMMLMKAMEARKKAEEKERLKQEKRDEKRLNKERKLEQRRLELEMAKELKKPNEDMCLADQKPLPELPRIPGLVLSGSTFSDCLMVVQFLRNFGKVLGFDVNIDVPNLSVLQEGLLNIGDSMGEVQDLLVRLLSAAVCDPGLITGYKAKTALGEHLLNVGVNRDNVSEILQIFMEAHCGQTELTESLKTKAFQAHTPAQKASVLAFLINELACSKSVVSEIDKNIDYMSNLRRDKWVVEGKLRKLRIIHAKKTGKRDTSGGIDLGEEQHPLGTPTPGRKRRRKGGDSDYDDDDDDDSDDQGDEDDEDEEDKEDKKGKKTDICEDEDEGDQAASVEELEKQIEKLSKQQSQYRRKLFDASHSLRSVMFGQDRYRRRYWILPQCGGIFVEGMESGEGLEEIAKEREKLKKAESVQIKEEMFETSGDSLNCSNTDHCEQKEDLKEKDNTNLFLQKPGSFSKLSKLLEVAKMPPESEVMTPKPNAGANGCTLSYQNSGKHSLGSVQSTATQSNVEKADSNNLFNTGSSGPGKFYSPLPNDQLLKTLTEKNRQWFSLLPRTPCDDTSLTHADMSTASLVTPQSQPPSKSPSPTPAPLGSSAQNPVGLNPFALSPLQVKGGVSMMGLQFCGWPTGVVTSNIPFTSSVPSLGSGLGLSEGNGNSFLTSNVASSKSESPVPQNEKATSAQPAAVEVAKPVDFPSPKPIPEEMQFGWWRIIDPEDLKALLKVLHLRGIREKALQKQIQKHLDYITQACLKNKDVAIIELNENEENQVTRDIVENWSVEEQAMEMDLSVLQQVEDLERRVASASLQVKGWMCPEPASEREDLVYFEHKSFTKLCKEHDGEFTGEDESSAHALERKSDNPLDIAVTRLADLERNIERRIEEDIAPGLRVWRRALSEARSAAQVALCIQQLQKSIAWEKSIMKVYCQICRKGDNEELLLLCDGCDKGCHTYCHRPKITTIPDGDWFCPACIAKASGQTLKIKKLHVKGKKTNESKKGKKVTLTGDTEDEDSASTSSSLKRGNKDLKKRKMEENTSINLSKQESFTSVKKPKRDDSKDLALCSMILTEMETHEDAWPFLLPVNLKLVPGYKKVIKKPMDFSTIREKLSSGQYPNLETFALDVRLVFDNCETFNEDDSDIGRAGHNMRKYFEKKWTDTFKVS

SMILES	Potency
COc1ccc(S(=O)(=O)Nc2ccccc2C(=O)NCc2ccco2)cc1	inconclusive: 56.2 µM [inhibitor, partial curve]
O=C(Nc1cccc(-c2ccc(N3CCCCC3)nn2)c1)c1ccc(Br)o1	inactive
O=C(CNS(=O)(=O)c1ccc(Br)s1)N1CCN(c2ccc(F)cc2)CC1	inactive
O=C(CSC(=S)N1CCCCC1)Nc1ncc2c(n1)CC(c1ccco1)CC2=O (stereo unspecified)	inconclusive: 56.2 µM [inhibitor, partial curve, poor fit]
C[n+]1cccc(C(=O)NNC(=O)C23CC4CC(CC(C4)C2)C3)c1	inconclusive: 89.1 µM [inhibitor, single point]
Cc1[nH]c(-c2ccccn2)nc(=S)c1Cl	inactive
COc1ccc(CN(C)S(=O)(=O)c2nnc(NC(=O)c3ccccc3OC)s2)cc1OC	inconclusive: 79.4 µM [inhibitor, single point]
CCCCCCC/C=N/Nc1nnc(Cc2ccccc2)c(=O)[nH]1	inconclusive: 11.2 µM [inhibitor, partial curve, poor fit]
Nc1ccc(S(=O)(=O)Nc2nc3ccccc3o2)cc1	inconclusive: 100 µM [inhibitor, single point]
CC(=O)Oc1cccc(/C=C2\Sc3ccccc3C2=O)c1	inconclusive: 39.8 µM [inhibitor, single point]
Cc1cc(-c2n[nH]c(=S)n2/N=C/c2ccc(Cl)c([N+](=O)[O-])c2)n[nH]1	inconclusive: 79.4 µM [inhibitor, single point]
CCCCCCCC1=CC2=CC(=O)C(C)(OC(C)=O)C(=O)C2=CN1CCc1ccccc1 (stereo unspecified)	inconclusive: 39.8 µM [inhibitor, partial curve]
COc1ccc(NC2CCCN(C(=O)c3ccc(OC)cc3OC)C2)cc1 (stereo unspecified)	inconclusive: 70.8 µM [inhibitor, single point]
CC(=O)COc1ccc2c(c1C)O/C(=C\c1ccco1)C2=O	inactive
COc1ccc2c(c1)c1c(c(=O)n(-c3ccc(F)c(Cl)c3)c(=O)n1Cc1ccccc1F)n2C	inactive
COc1cc(/C=C/C(=O)/C=C(O)/C=C/c2ccc(O)c(OC)c2)ccc1O	inconclusive: 44.7 µM [inhibitor, partial curve]
O=C(O)CC(c1cccc2ccccc12)n1cccc1 (stereo unspecified)	inconclusive: 79.4 µM [inhibitor, single point]
CC1=C(C(=O)Nc2ccccc2)C2(CCCCC2)C(C#N)=C(S)N1	inactive
COc1ccc(C(=O)c2c(C(F)(F)F)oc3c2C(=O)c2ccccc2C3=O)cc1	active: 7.94 µM
COc1cccc(NC(=S)NC(=O)/C=C/c2ccco2)c1	active: 50.1 µM
COc1ccc(NC(=O)CCCN2C(=O)/C(=C\c3ccco3)SC2=S)cc1	inconclusive: 39.8 µM [inhibitor, partial curve]
CC(=O)NC(c1ccco1)c1cc(F)c2cccnc2c1O (stereo unspecified)	active: 25.1 µM and active: 20 µM
O=C(Cn1cnc2scc(-c3ccccc3)c2c1=O)N1CCOCC1	inconclusive: 89.1 µM [inhibitor, single point]
O=C(CN1CCCC1)Nc1ccccc1Cl	inconclusive: 0.708 µM [inhibitor, partial curve, poor fit]

SMILES	Potency
CC1=NN(c2ccc(S(=O)(=O)O)cc2C)C(=O)C1	active: 56.2 µM
O=C(CN1CCCC1)N1c2ccccc2Sc2ccc(Cl)cc21	inactive
COc1ccc(/C=C/c2nc(C#N)c(N3CCC(C(N)=O)CC3)o2)cc1OC	inactive
c1cc2c(cc1-c1csc(NNC3=NCCCCC3)n1)OCCO2	active: 35.5 µM
O=C(CCN1C(=O)/C(=C\c2cccc(Br)c2)SC1=S)N1CCOCC1	inactive
CCc1nc(N2CCN(Cc3ccc4c(c3)OCO4)CC2)c2oc3ccccc3c2n1	active: 70.8 µM
S=c1[nH]nc(-c2cc(-c3ccccc3)n[nH]2)n1/N=C/c1ccc(Cl)c(Cl)c1	active: 44.7 µM
O=C(Cn1cnc2scc(-c3cccc([N+](=O)[O-])c3)c2c1=O)NCc1ccco1	active: 44.7 µM
COC(=O)c1cccc(OCC(O)Cn2cnc3cc(C)c(C)cc32)c1 (stereo unspecified)	inactive
COc1ccc(-n2nc3c(N4CCC(C(=O)NCc5ccccc5)CC4)nnc(C)c3c2C)cc1	inconclusive: 89.1 µM [inhibitor, single point]
CC(C)c1ccc(-c2nn(-c3ccccc3)cc2C(=O)NCC2CCCO2)cc1 (stereo unspecified)	inactive
COc1ccc(C(=O)CSc2nnc(CN3CCCCC3)n2-c2ccc(Cl)cc2)cc1OC	inconclusive: 89.1 µM [inhibitor, single point]
O=C(NCCc1ccccc1)C1CCCN1C(=O)Nc1ccc(Cl)cc1 (stereo unspecified)	inconclusive: 89.1 µM [inhibitor, single point]
Nc1cc(N)cc(C(=O)OCC(=O)Nc2cc(S(=O)(=O)N3CCCCC3)ccc2Cl)c1	active: 25.1 µM
O=C(NCCc1c[nH]c2ccccc12)C(=O)NCC1OCCCN1S(=O)(=O)c1ccccc1 (stereo unspecified)	inconclusive: 50.1 µM [inhibitor, partial curve]
CC(C)Cc1nn2cc(-c3cccc(Br)c3)nc2s1	inconclusive: 50.1 µM [inhibitor, partial curve]
CC(=O)N1CCc2cc(S(=O)(=O)NC(Cc3ccccc3)C(=O)NC3CCCCCC3)ccc21 (stereo unspecified)	inactive
CC(C)n1c(Nc2ccccc2)nc2ccccc21	inconclusive: 79.4 µM [inhibitor, single point]
CCN(c1ccc(OC)cc1)S(=O)(=O)c1ccc2c(c1)NC(=O)CS2	inactive
COC(=O)c1c(C)n(-c2ccc(OC)cc2)c2ccc(O)cc12	inconclusive: 35.5 µM [inhibitor, partial curve]
Cc1ccc2nc(SCc3nc4cc(Cl)ccc4c(=O)[nH]3)[nH]c2c1	inconclusive: 89.1 µM [inhibitor, single point]
CCOc1ccc(-c2nnc(SCC(=O)Nc3ccc4c(c3)c3ccccc3n4CC)n2N)cc1	active: 70.8 µM
COc1ccc(N2COC3c4cccc5cccc(c45)C32)cc1 (stereo unspecified)	active: 44.7 µM
COc1ccccc1/C(C)=N/Oc1cc(N)cc([N+](=O)[O-])c1	inconclusive: 50.1 µM [inhibitor, partial curve]

SMILES	Potency
CCOc1ccc(-c2cccc(NC(=O)c3ccco3)c2)nn1	inactive
CCN(CC)CCN(C(=O)c1cc(Cl)sc1Cl)c1nc2cc3c(cc2s1)OCO3	inconclusive: 39.8 µM [inhibitor, partial curve]
N#Cc1cnn2ccc(-c3cc(N4CCOCC4)ccc3[N+](=O)[O-])nc12	inconclusive: 89.1 µM [inhibitor, single point]
COc1ccc(N2CCN(CCCNC(=O)c3nnc(Cc4ccccc4Cl)o3)CC2)cc1	active: 35.5 µM
CCS(=O)(=O)N1CC(=O)N(c2cc(C)cc(C)c2)C(C)(C(=O)NC2CCCCC2)C1 (stereo unspecified)	inactive
COc1ccc(-c2c(-c3cc(OC)cc(OC)c3)n(C)c3ccc(-c4ccc(N(C)C)nc4)cc23)cc1	inconclusive: 35.5 µM [inhibitor, full curve, poor fit]
CC(C)Cc1cc(CN2CCC(CO)(Cc3cccc(C(F)(F)F)c3)CC2)[nH]n1	inconclusive: 70.8 µM [inhibitor, single point]
COc1ccc(CNc2oc(COc3ccc(Cl)cc3)nc2C#N)cc1	inconclusive: 31.6 µM [inhibitor, full curve]
O=C(N/N=C/C(Cl)=C/c1ccc([N+](=O)[O-])cc1)C(=O)Nc1cccc(C(=O)O)c1	active: 56.2 µM
Cc1nn(C(=O)c2ccc([N+](=O)[O-])cc2)c(C)c1Br	inconclusive: 22.4 µM [inhibitor, full curve]
Cc1cccc(/C=C/C(=O)c2cc(Br)ccc(=O)c2O)c1	active: 44.7 µM
NC(Cc1ccc(O)cc1)c1cn([C@@H](CCC(=O)O)C(=O)N2CCNCC2)nn1 (stereo partly specified)	inconclusive: 89.1 µM [inhibitor, single point]
COc1ccc(CCNCC(=O)N2C(C)CCCC2C)cc1OC (stereo unspecified)	active: 79.4 µM
Cn1cnnc1Sc1ccc(C(=O)NCCC(c2ccccc2)c2ccccc2)cc1[N+](=O)[O-]	inconclusive: 56.2 µM [inhibitor, partial curve]
CCN(CC(=O)Nc1ccccc1C(F)(F)F)C(=O)CCS(=O)(=O)c1ccc(C)cc1	inactive
Cc1ccc(NC(=O)CSc2nnc(Cc3cccn3C)n2-c2ccc(F)cc2)cc1	inconclusive: 70.8 µM [inhibitor, single point]
Nn1cc(-c2ccccc2)nc1SCC(=O)N1CCN(S(=O)(=O)c2ccc3ccccc3c2)CC1	inconclusive: 39.8 µM [inhibitor, partial curve]
COc1ccc(Nc2cc(C)nc3ccccc23)cc1	inconclusive: 89.1 µM [inhibitor, single point]
Cn1cc(/C=C(\NC(=O)c2ccccc2Cl)C(=O)NCCCn2ccnc2)c2ccccc21	inconclusive: 35.5 µM [inhibitor, full curve]
CCOC(=O)c1c(NC(=O)CN2C(=O)C(=O)N(CC(C)C)C2=O)sc(C)c1CC	inactive
Cc1c(CCOC(=O)C23CC4CC(CC(C)(C4)C2)C3)sc[n+]1CC(=O)c1ccccc1	inconclusive: 89.1 µM [inhibitor, single point]
O=C(c1ccc2c(c1)N(Cc1cccc(Cl)c1)C(=O)c1ccccc1S2(=O)=O)N1CCc2ccccc21	inactive
Cc1nnc(N/N=C/c2ccccn2)[nH]c1=O	active: 39.8 µM
